Reference: the antibiotic and cytotoxicity screens of Wong et al. (2023)
Some of the results follow.

What was measured:
HSkMC = human skeletal muscle cells; experiment: cytotoxicity call (relative viability < 0.9); conditions: 10 µM
HepG2 = experiment: cytotoxicity call (relative viability < 0.9); conditions: 10 µM
S. aureus RN4220 = experiment: growth inhibition call (relative growth <= 0.2); conditions: 50 µM

Cc1ccc(S(=O)(=O)N(C)C[C@@H]2Oc3ccc(NS(=O)(=O)c4cn(C)cn4)cc3C(=O)N([C@@H](C)CO)C[C@H]2C)cc1
inactive: cytotoxicity call (HSkMC) | cytotoxicity call (HepG2) | growth inhibition call (S. aureus RN4220)

C[C@H](CO)N1C[C@H](C)[C@@H](CN(C)S(=O)(=O)c2ccccc2)Oc2ncc(Br)cc2C1=O
inactive: cytotoxicity call (HSkMC) | cytotoxicity call (HepG2) | growth inhibition call (S. aureus RN4220)

COc1ccccc1NC(=O)N(C)C[C@H]1Oc2cc(Br)ccc2S(=O)(=O)N([C@@H](C)CO)C[C@H]1C
inactive: cytotoxicity call (HSkMC) | cytotoxicity call (HepG2) | growth inhibition call (S. aureus RN4220)

C[C@@H]1CN([C@@H](C)CO)C(=O)c2cc(NC(=O)Nc3cccc4ccccc34)ccc2O[C@@H]1CN(C)C(=O)Nc1ccc(C(F)(F)F)cc1
inactive: cytotoxicity call (HSkMC) | cytotoxicity call (HepG2) | growth inhibition call (S. aureus RN4220)

COc1ccc(CNC(=O)N(C)C[C@@H]2OCc3ccccc3-c3c(n(C)c4ccccc34)C(=O)N([C@@H](C)CO)C[C@@H]2C)cc1
inactive: cytotoxicity call (HSkMC) | cytotoxicity call (HepG2) | growth inhibition call (S. aureus RN4220)

C[C@H]1CN([C@@H](C)CO)C(=O)c2cc(NC(=O)Cn3cnnn3)ccc2O[C@H]1CN(C)Cc1ccc(Oc2ccccc2)cc1
inactive: cytotoxicity call (HSkMC) | cytotoxicity call (HepG2) | growth inhibition call (S. aureus RN4220)

C[C@H]1CN([C@@H](C)CO)C(=O)c2cc(NC(=O)C3CC3)ccc2O[C@H]1CN(C)Cc1ccc(Oc2ccccc2)cc1
inactive: cytotoxicity call (HSkMC) | cytotoxicity call (HepG2) | growth inhibition call (S. aureus RN4220)

C[C@@H]1CN([C@@H](C)CO)C(=O)c2cc(NC(=O)C3CC3)ccc2O[C@H]1CN(C)Cc1ccc(C(=O)O)cc1
inactive: cytotoxicity call (HSkMC) | cytotoxicity call (HepG2) | growth inhibition call (S. aureus RN4220)

COc1ccc(S(=O)(=O)Nc2cccc3c2O[C@H](CN(C)S(C)(=O)=O)[C@H](C)CN([C@H](C)CO)C3=O)cc1
inactive: cytotoxicity call (HSkMC) | cytotoxicity call (HepG2) | growth inhibition call (S. aureus RN4220)

COc1ccc(S(=O)(=O)N2C[C@H](O)COC[C@H]3O[C@@H](CC(=O)NCCCN4CCOCC4)CC[C@@H]32)cc1
inactive: cytotoxicity call (HSkMC) | cytotoxicity call (HepG2) | growth inhibition call (S. aureus RN4220)

C/C=C/c1ccc2c(c1)O[C@@H](CN(C)S(=O)(=O)c1ccc(C)cc1)[C@@H](C)CN([C@@H](C)CO)S2(=O)=O
inactive: cytotoxicity call (HSkMC) | cytotoxicity call (HepG2) | growth inhibition call (S. aureus RN4220)

C[C@@H]1CN([C@@H](C)CO)C(=O)CCCn2nncc2CO[C@H]1CN(C)C(=O)Nc1ccc(N2CCCCC2)cc1
inactive: cytotoxicity call (HSkMC) | cytotoxicity call (HepG2) | growth inhibition call (S. aureus RN4220)

COCCN1CCCn2c(nc(CNS(C)(=O)=O)cc2=O)C1
inactive: cytotoxicity call (HSkMC) | cytotoxicity call (HepG2) | growth inhibition call (S. aureus RN4220)

CNC[C@H](O)c1ccc(O)c(O)c1
inactive: cytotoxicity call (HSkMC) | cytotoxicity call (HepG2) | growth inhibition call (S. aureus RN4220)

C[C@@H]1CN([C@@H](C)CO)C(=O)c2cccc(NS(=O)(=O)c3cn(C)cn3)c2O[C@@H]1CN(C)Cc1ccc2c(c1)OCO2
inactive: cytotoxicity call (HSkMC) | cytotoxicity call (HepG2) | growth inhibition call (S. aureus RN4220)

C[N+](C)(C)CC(=O)O
inactive: cytotoxicity call (HSkMC) | cytotoxicity call (HepG2) | growth inhibition call (S. aureus RN4220)

Cc1noc(C)c1S(=O)(=O)Nc1ccc2c(c1)C(=O)N([C@H](C)CO)C[C@@H](C)[C@H](CN(C)Cc1ccc(Cl)c(Cl)c1)OCCCC[C@@H](C)O2
inactive: cytotoxicity call (HSkMC) | cytotoxicity call (HepG2) | growth inhibition call (S. aureus RN4220)

C[C@@H]1CN([C@@H](C)CO)C(=O)c2cc(NS(=O)(=O)c3cn(C)cn3)ccc2O[C@H]1CN(C)Cc1ccccc1
inactive: cytotoxicity call (HSkMC) | cytotoxicity call (HepG2) | growth inhibition call (S. aureus RN4220)

O=C(C[C@H]1CC[C@@H](NS(=O)(=O)c2ccc(F)cc2)[C@@H](CO)O1)NCc1ccc(Cl)c(Cl)c1
inactive: cytotoxicity call (HSkMC) | cytotoxicity call (HepG2) | growth inhibition call (S. aureus RN4220)

Cc1noc(C)c1S(=O)(=O)Nc1ccc2c(c1)CC(=O)N([C@@H](C)CO)C[C@H](C)[C@H](CN(C)S(=O)(=O)c1ccc(Cl)cc1)O2
inactive: cytotoxicity call (HSkMC) | cytotoxicity call (HepG2) | growth inhibition call (S. aureus RN4220)

C[C@@H]1CCCCO[C@@H](CN(C)C(=O)Cc2ccccc2)[C@H](C)CN([C@@H](C)CO)C(=O)c2cc(NC(=O)Nc3ccccc3)ccc2O1
inactive: cytotoxicity call (HSkMC) | cytotoxicity call (HepG2) | growth inhibition call (S. aureus RN4220)

C[C@H](CO)N1C[C@H](C)[C@H](CN(C)S(=O)(=O)c2cn(C)cn2)Oc2ncc(/C=C/c3ccccc3)cc2C1=O
inactive: cytotoxicity call (HSkMC) | cytotoxicity call (HepG2) | growth inhibition call (S. aureus RN4220)

Cc1ccc(S[C@]2(C(=O)NCC(C)C)CC(=O)N(Cc3cc(C(F)(F)F)cc(C(F)(F)F)c3)[C@@H]2c2ccc(CO)cc2)cc1
inactive: cytotoxicity call (HSkMC) | cytotoxicity call (HepG2) | growth inhibition call (S. aureus RN4220)

O=S1(=O)C[C@H](NCc2cccnc2)[C@@H](O)C1
inactive: cytotoxicity call (HSkMC) | cytotoxicity call (HepG2) | growth inhibition call (S. aureus RN4220)

COc1ccc(S(=O)(=O)Nc2cccc3c2O[C@@H](CN(C)S(=O)(=O)c2c(C)noc2C)[C@H](C)CN([C@@H](C)CO)C3=O)cc1
inactive: cytotoxicity call (HSkMC) | cytotoxicity call (HepG2) | growth inhibition call (S. aureus RN4220)

CCCNC(=O)N(C)C[C@@H]1Oc2ncc(-c3ccc(C(=O)N(C)C)cc3)cc2C(=O)N([C@H](C)CO)C[C@@H]1C
inactive: cytotoxicity call (HSkMC) | cytotoxicity call (HepG2) | growth inhibition call (S. aureus RN4220)
